Measurements as given in the GPR68 mutational scans of Howard et al. (2025).
The least precise scores are not listed. The source holds two more conditions with little spread; they are left out. In variant names, del marks residues removed and ins residues inserted between the two positions. For part of these data: The data file names ogerin without a concentration.

B1: GPR68, Q15743 (parent)
chain: MGNITADNSSMSCTIDHTIHQTLAPVVYVTVLVVGFPANCLSLYFGYLQIKARNELGVYLCNLTVADLFYICSLPFWLQYVLQHDNWSHGDLSCQVCGILLYENIYISVGFLCCISVDRYLAVAHPFRFHQFRTLKAAVGVSVVIWAKELLTSIYFLMHEEVIEDENQHRVCFEHYPIQAWQRAINYYRFLVGFLFPICLLLASYQGILRAVRRSHGTQKSRKDQIQRLVLSTVVIFLACFLPYHVLLLVRSVWEASCDFAKGVFNAYHFSLLLTSFNCVADPVLYCFVSETTHRDLARLRGACLAFLTCSRTGRAREAYPLGAPEASGKSGAQGEEPELLTKLHPAFQTPNSPGSGGFPTGRLA

What was measured:
[1] = variants of: B1; experiment: cAMP reporter score (Enrich2 score, wild type = 0); higher = more signal; HEK293T, FACS bins
[2] = variants of: B1; experiment: surface expression score (Enrich2 score, wild type = 0); higher = more signal; HEK293T, FACS bins

Variant | cAMP reporter score ([1]; pH 5.5) | cAMP reporter score ([1]; pH 6) | cAMP reporter score ([1]; pH 6, modulator: ogerin) | cAMP reporter score ([1]; pH 6.5, modulator: ogerin) | surface expression score [2]
V280_A281insG | -1.46 | -1.06 | -1.64 | -1.8 | -3.46
P283_V284insGS | -0.704 | -1.1 | -1.98 | -0.993 | -2.21
C279_A281del | -1.16 | -1.34 | -1.69 | -1.07 | -2.33
D282_P283insGSG | -1.13 | -0.785 | -1.21 | -1.39 | -1.68
C279_V280insG | -0.828 | -0.876 | -0.33 | -0.965 | -2.47
V284_L285insGS | -1 | 0.052 | -1.46 | -0.515 | -1.38
F277Y | 0.303 | 0.166 | -0.615 | -0.7 | -1.16
F277R | -1.63 | -0.665 | -0.352 | -0.557 | -2.62
F277M | 0.528 | -0.348 | 0.415 | -0.683 | 1.17
F277H | -1.5 | -0.482 | -2.17 | -1.24 | -2.57
F277G | 0.105 | -0.052 | -0.325 | -0.161 | -1.74
F277P | -1.22 | -0.439 | -0.824 | -0.983 | -1.9
F277N | -1.97 |  | -0.821 | -1.65 | -1.67
F277A | -0.817 | -0.071 | -1.56 | -0.95 | -0.768
F277V | 2.08 | 0.467 | 1.54 | 1.65 | 0.607
F277Q | -1.74 | -1.07 | -1.29 | -0.79 | -2.71
F277W | 0.486 |  | 0.68 | 0.367 | -1.51
F277I | 0.367 | 0.172 | 0.347 | 0.086 | 0.083
F277E | -1.68 | -1.44 | -1.22 | -0.737 | -2.6
F277L | 0.684 | 1.65 | 0.999 | 0.884 | 1.49
F277C | -1.51 | -1.18 | -1.15 | -1.17 | -1.07

Variant | cAMP reporter score ([1]; pH 5.5) | cAMP reporter score ([1]; pH 6) | cAMP reporter score ([1]; pH 6, modulator: ogerin) | cAMP reporter score ([1]; pH 6.5, modulator: ogerin) | surface expression score [2]
F277S | -0.875 | -1.52 | -1.33 | -1.38 | -2.01
F277K | -2.28 | -1.1 |  | -1.12 | -2
F277D | -1.41 | -1.3 | -1.6 | -0.954 | -2.41
F277T | -0.953 | -0.473 | -1.33 | -0.85 | -0.317
F277_C279del | -1.52 | -1.42 | -1.88 | -1.53 | -2.93
S276_N278del | -1.32 | -0.89 | -2.13 | -1.29 | -2.29
D282_P283del | -1.35 | -1.28 | -1.26 | -0.538 | -2.07
S276_F277insG | -2.32 | 0.834 | -3.4 | -0.405 | 
S276_F277del | -1.44 | -1.43 | -2.18 | -1.09 | -2.46
A281del | -1.36 | -0.825 | -1.1 | -0.975 | -3.3
A281_D282insGSG | -1.76 | -1.57 | -1.38 | -1.66 | -1.4
V284_L285insGSG | -0.565 | -1.01 | -0.924 | -0.129 | -2.5
F277del | -1.44 | -0.661 | -1.86 | -1.37 | -2.37
C279G | -1.02 | -0.772 | -1.9 | -0.865 | -1.64
C279P | 1.14 | -1.01 | 0.519 | -0.381 | 0.188
C279V | 0.058 | 0.533 | 0.381 | -0.262 | 0.766
C279A | 0.574 | 3.18 | 0.744 | 2.28 | 0.126
C279S | 0.884 | 0.729 | 0.356 | 0.429 | -1.35
C279K | -1.95 | 0.147 | -0.351 | -1.04 | -0.735
C279H | 0.008 |  | -0.211 | 0.715 | 
C279D | -1.05 | -1.91 | -1.37 | -1.27 | -1.79

Variant | cAMP reporter score ([1]; pH 5.5) | cAMP reporter score ([1]; pH 6) | cAMP reporter score ([1]; pH 6, modulator: ogerin) | cAMP reporter score ([1]; pH 6.5, modulator: ogerin) | surface expression score [2]
C279L | -0.403 | -0.797 | -1.79 | -1.29 | -1.38
C279R | -0.601 | -0.174 | -0.79 | -0.608 | -0.683
C279F | -1.47 | -1.41 | -1.76 | -1.71 | -2.21
C279M | -0.605 | -1.14 | -0.553 | -0.758 | -1.89
C279E | -0.95 | -0.706 | -0.393 | -0.57 | -2.2
C279I | -0.158 | -0.684 | -0.621 | -0.901 | -0.723
C279T | 0.664 | 0.095 | -0.469 | -0.937 | -0.112
C279Q | -0.339 | -0.085 | -1.86 | -1.1 | -2.82
C279W | -1.51 |  | -0.619 | -0.906 | -2.26
C279Y | -1.27 | -0.692 | -1.97 | -0.857 | -1.81
S276del | -1.74 | -1.2 | -1.62 | -1.41 | -2.5
N278_C279insGS | -2.03 | -1.09 | -0.815 | -1.24 | -2.08
P283_V284insGSG | -1.61 | -1.54 | -1.37 | -1.62 | -2.24
S276W | -0.917 | -1.11 | -1.2 | -0.849 | -2.06
S276T | 0.011 | 1.07 | 1.11 | 1.67 | 0.395
S276N | -1.26 | -1.28 | -2.27 | -1.49 | -0.172
S276Q | -1.1 | -0.242 | -0.887 | -1.43 | -0.548
S276F | -2.08 | -0.824 |  | -1.99 | -2.21
S276K | -1.23 | -1.08 | -1.61 | -1.27 | 0.376
